Data as given in US20240376128A1, “N-CYCLOPROPYLPYRIDO [4, 3-D] PYRIMIDIN-4-AMINE DERIVATIVES AND USES THEREOF” (Jacobio Pharmaceuticals Co., Ltd., priority 2021, published 2024).

Experiments:
K-Ras G12V [1] = target: T1, K-Ras G12V (Homo sapiens, UniProt P01116, G12V); assay: SOS1 catalyzed nucleotide exchange assay (GDP form K-Ras), TR-FRET; details: read-out: Biochemical assays, IC50, K-Ras G12V GDP
Description: The parameters were F486: Excitation 340 nm, Emission 486 nm, Lag time 100 pas, Integration time 200 pas; F515: Excitation 340 nm, Emission 515 nm, Lag time 100 pas, Integration time 200 pas. TR-FRET ratios for each individual wells were calculated by equation: TR-FRET ratio=(Signal F515/Signal F486)*10000.

K-Ras G12V [2] = target: T1, K-Ras G12V; assay: GTP-K-Ras (GppNp-K-Ras) and cRAF interaction assay, HTRF; details: read-out: Biochemical assays, IC50, K-Ras G12V GppNp
Excerpt: GppNp is an analog of GTP.

Question: How did the IC50 (K-Ras G12V [1]) turn out when `C#Cc1c(F)ccc2cc(O)cc(-c3ncc4c(N(C)C5CC56CCC6)nc(OC[C@@]56CCCN5C[C@H](F)C6)nc4c3F)c12` (stereo partly drawn) [Compound 52, 5-ethynyl-6-fluoro-4-(8-fluoro-2-(((2R,7aS)-2-fluorotetrahydro-1H-pyrrolizin-7a(5H)-yl)methoxy)-4-(methyl(spiro[2.3]hexan-1-yl)amino)pyrido[4,3-d]pyrimidin-7-yl)naphthalen-2-ol] was run?
Answer: 76 nM

Question: And the IC50 (K-Ras G12V [2])?
Answer: > 1000 nM
